According to the antibiotic and cytotoxicity screens of Wong et al. (2023):
The other results are listed elsewhere or left out.

Legend:
[1] = tested on: HSkMC (human skeletal muscle cells); assay: cytotoxicity call (relative viability < 0.9); settings: 10 µM
[2] = tested on: HepG2; assay: cytotoxicity call (relative viability < 0.9); settings: 10 µM
[3] = tested on: S. aureus RN4220; assay: growth inhibition call (relative growth <= 0.2); settings: 50 µM

C[C@H]1CCCCO[C@H](CN(C)S(=O)(=O)c2cccs2)[C@@H](C)CN([C@@H](C)CO)C(=O)c2cc(NC(=O)Nc3ccc(F)cc3)ccc2O1
inactive: cytotoxicity call [1] | cytotoxicity call [2] | growth inhibition call [3]

C[C@@H]1CN([C@H](C)CO)C(=O)Cc2cc(NC(=O)C3CCCCC3)ccc2O[C@@H]1CN(C)S(C)(=O)=O
inactive: cytotoxicity call [1] | cytotoxicity call [2] | growth inhibition call [3]

C[C@@H]1CCCCO[C@@H](CN(C)CC2CCCCC2)[C@H](C)CN([C@@H](C)CO)C(=O)c2cc(NC(=O)Cc3ccccc3)ccc2O1
inactive: cytotoxicity call [1] | cytotoxicity call [2] | growth inhibition call [3]

CC(C)NC(=O)N(C)C[C@@H]1Oc2ccc(NC(=O)c3ccncc3)cc2CC(=O)N([C@@H](C)CO)C[C@@H]1C
inactive: cytotoxicity call [1] | cytotoxicity call [2] | growth inhibition call [3]

COCCOC(=O)N1C(=O)[C@@]2(c3cc(C#CC4(O)CCCCCC4)ccc31)[C@H](C(=O)NC[C@H](O)c1ccccc1)[C@H]1C(=O)O[C@H](c3ccccc3)[C@H](c3ccccc3)N1[C@@H]2c1ccc(OCCO)cc1
inactive: cytotoxicity call [1] | cytotoxicity call [2] | growth inhibition call [3]

C[C@H](CO)N1C[C@H](C)[C@@H](CN(C)Cc2ccc(Oc3ccccc3)cc2)Oc2c(NC(=O)CCC(F)(F)F)cccc2C1=O
inactive: cytotoxicity call [1] | cytotoxicity call [2] | growth inhibition call [3]

COc1ccc(NC(=O)Nc2ccc3c(c2)C(=O)N([C@H](C)CO)C[C@@H](C)[C@H](CN(C)C(=O)Nc2ccccc2)OCCCC[C@@H](C)O3)cc1
inactive: cytotoxicity call [1] | cytotoxicity call [2] | growth inhibition call [3]

COc1ccc(NC(=O)N(C)C[C@H]2OCCCC[C@H](C)Oc3ccc(NC(=O)c4ccncc4)cc3C(=O)N([C@@H](C)CO)C[C@H]2C)cc1
inactive: cytotoxicity call [1] | cytotoxicity call [2] | growth inhibition call [3]

O=C(CN1CCN(S(=O)(=O)c2ccc(F)c(Cl)c2)CC1)N1CCNC1=O
inactive: cytotoxicity call [1] | cytotoxicity call [2] | growth inhibition call [3]

C[C@@H]1CCCCO[C@@H](CN(C)Cc2ccccc2)[C@@H](C)CN([C@H](C)CO)C(=O)c2cc(NS(=O)(=O)c3ccc(Cl)cc3)ccc2O1
inactive: cytotoxicity call [1] | cytotoxicity call [2] | growth inhibition call [3]
